Reference: the RNAGym collection of RNA variant scans (doi:10.1073/pnas.2313332121)
This sample is rich in variants without activity.

B1: TPR 5TU (parent)
chain: GGAUCUUCUCGAUCUAACAAAAAAGACAAAUCUGCCACAAAGCUUGAGAGCAUCUUCGGAUGCAGAGGCGGCAGCCUUCGGUGGCGCGAUAGCGCCAACGUUCUCAACUAUGACACGCAAAACGCGUGCUCCGUUGAAUGGAGUUUAUCAUG

Variants of: B1
Assay: polymerase ribozyme fitness, log enrichment relative to wild type (log ratio); higher = more active; in vitro selection for triplet polymerase activity
Method in brief: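 A single round of triplicate in vitro selection, including frozen incubation at −7 °C, was applied to PCR-built, transcribed mutant libraries of each subunit of a heterodimeric triplet polymerase ribozyme. Illumina sequencing of input and output libraries retained genotypes with ≥10 input reads and ≥1 read per output. Fitness is the base-2 logarithm of genotype enrichment divided by wild-type enrichment, from inverse-variance-weighted replicate averages.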

Question: With A49C C72G G83A G88U A120G A150C as the variant, how does the “polymerase ribozyme fitness (log ratio)” value read?
Answer: ≤ -4.2

Question: For A49C C85G C96G C123A, which “polymerase ribozyme fitness (log ratio)” value is on record?
Answer: ≤ -4.2

Question: With A49G C51U C95U G100C A107U C123G G136U A147G as the variant, how does the “polymerase ribozyme fitness (log ratio)” value read?
Answer: ≤ -4.2

Question: Which “polymerase ribozyme fitness (log ratio)” value does the source give for G48U G86C G133U here?
Answer: ≤ -4.2

Question: Which “polymerase ribozyme fitness (log ratio)” value does the source give for A49G C93G C108A A120G A142U here?
Answer: ≤ -4.2

Question: For A49U A60U C75G G84U A147G C149G, which “polymerase ribozyme fitness (log ratio)” value is on record?
Answer: ≤ -4.2

Question: For A49C G68C A91C G92A C99G, which “polymerase ribozyme fitness (log ratio)” value is on record?
Answer: ≤ -4.2

Question: With A49G G50A C51U A52G G68A C99U C116A as the variant, how does the “polymerase ribozyme fitness (log ratio)” value read?
Answer: ≤ -4.2

Question: With G48U C96A as the variant, how does the “polymerase ribozyme fitness (log ratio)” value read?
Answer: -0.685

Question: For A49U U55C U56A A73U C93U G117C, which “polymerase ribozyme fitness (log ratio)” value is on record?
Answer: ≤ -4.2

Question: For A49C C118G, which “polymerase ribozyme fitness (log ratio)” value is on record?
Answer: ≤ -4.2

Question: Which “polymerase ribozyme fitness (log ratio)” value does the source give for A49G G50A U53A U77G C79U G92U U109G A122U U134C U135C C149A A150U here?
Answer: ≤ -4.2

Question: With A49G A91U C93U U101C as the variant, how does the “polymerase ribozyme fitness (log ratio)” value read?
Answer: ≤ -4.2

Question: With A49C U56A A91U C93A C116U A121G C129U G133A as the variant, how does the “polymerase ribozyme fitness (log ratio)” value read?
Answer: ≤ -4.2

Question: For A49U G50A A66G C76G U145C, which “polymerase ribozyme fitness (log ratio)” value is on record?
Answer: ≤ -4.2

Question: For A49U A150U, which “polymerase ribozyme fitness (log ratio)” value is on record?
Answer: -0.0151

Question: With A49C G50C G81C A110U as the variant, how does the “polymerase ribozyme fitness (log ratio)” value read?
Answer: ≤ -4.2

Question: Which “polymerase ribozyme fitness (log ratio)” value does the source give for A49C C54U here?
Answer: ≤ -4.2

Question: With A49C A97G U148C as the variant, how does the “polymerase ribozyme fitness (log ratio)” value read?
Answer: ≤ -4.2

Question: For A49C C103A, which “polymerase ribozyme fitness (log ratio)” value is on record?
Answer: -3.96

Question: Which “polymerase ribozyme fitness (log ratio)” value does the source give for A49C C103G here?
Answer: ≤ -4.2

Question: Which “polymerase ribozyme fitness (log ratio)” value does the source give for A49C C54A U78C C85U here?
Answer: -3.91

Question: For A49C A66C C85G U135G, which “polymerase ribozyme fitness (log ratio)” value is on record?
Answer: ≤ -4.2

Question: For A49U C54U G88C U90A C114U A142C, which “polymerase ribozyme fitness (log ratio)” value is on record?
Answer: ≤ -4.2

Question: For G48U G83C G88A C93U U102A, which “polymerase ribozyme fitness (log ratio)” value is on record?
Answer: ≤ -4.2

Question: For A49U G141A A147G, which “polymerase ribozyme fitness (log ratio)” value is on record?
Answer: ≤ -4.2

Question: With A49U U53A G67U G68A C95A U144C as the variant, how does the “polymerase ribozyme fitness (log ratio)” value read?
Answer: ≤ -4.2

Question: For A49U C69U U148C, which “polymerase ribozyme fitness (log ratio)” value is on record?
Answer: ≤ -4.2

Question: With A49G G83U A89C U90G C105U as the variant, how does the “polymerase ribozyme fitness (log ratio)” value read?
Answer: ≤ -4.2

Question: Which “polymerase ribozyme fitness (log ratio)” value does the source give for A49C A115G here?
Answer: ≤ -4.2

Question: For A49C A115U, which “polymerase ribozyme fitness (log ratio)” value is on record?
Answer: ≤ -4.2

Question: With A49C G50C as the variant, how does the “polymerase ribozyme fitness (log ratio)” value read?
Answer: ≤ -4.2

Question: Which “polymerase ribozyme fitness (log ratio)” value does the source give for G50A A73U C96G A98U A120U A137G here?
Answer: ≤ -4.2

Question: With A49C G81A G92U C93U G140U G152C as the variant, how does the “polymerase ribozyme fitness (log ratio)” value read?
Answer: ≤ -4.2

Question: With G48U C93U G100A A120U C131G as the variant, how does the “polymerase ribozyme fitness (log ratio)” value read?
Answer: ≤ -4.2

Question: With A49U C51A U55G C95A as the variant, how does the “polymerase ribozyme fitness (log ratio)” value read?
Answer: -2.79

Question: For A49U A52G C96U C99G, which “polymerase ribozyme fitness (log ratio)” value is on record?
Answer: ≤ -4.2

Question: For A49U G80A, which “polymerase ribozyme fitness (log ratio)” value is on record?
Answer: -3.76

Question: With A49G C76U G84A C105G G124C U134A A147G as the variant, how does the “polymerase ribozyme fitness (log ratio)” value read?
Answer: ≤ -4.2

Question: For A49G C87G U139A, which “polymerase ribozyme fitness (log ratio)” value is on record?
Answer: ≤ -4.2

Question: With A49C G58A C69A U78G as the variant, how does the “polymerase ribozyme fitness (log ratio)” value read?
Answer: ≤ -4.2

Question: For A49C C79U C85U A106G G124A, which “polymerase ribozyme fitness (log ratio)” value is on record?
Answer: ≤ -4.2

Question: With A49U U82G U151G as the variant, how does the “polymerase ribozyme fitness (log ratio)” value read?
Answer: ≤ -4.2

Question: With A49U G50A as the variant, how does the “polymerase ribozyme fitness (log ratio)” value read?
Answer: -0.047

Question: For A49C C51A C76A A91G G128A A138U, which “polymerase ribozyme fitness (log ratio)” value is on record?
Answer: ≤ -4.2

Question: With A49G C76A C93A C103G C105A U127C as the variant, how does the “polymerase ribozyme fitness (log ratio)” value read?
Answer: ≤ -4.2

Question: With A49C A52C C69A C76U G92U C131G as the variant, how does the “polymerase ribozyme fitness (log ratio)” value read?
Answer: ≤ -4.2

Question: For A49G G67U C69A G70C G83A A89C C96G C105U A106G G128C, which “polymerase ribozyme fitness (log ratio)” value is on record?
Answer: ≤ -4.2

Question: Which “polymerase ribozyme fitness (log ratio)” value does the source give for A49G A52C A66U here?
Answer: ≤ -4.2

Question: For A49C G88C G141C, which “polymerase ribozyme fitness (log ratio)” value is on record?
Answer: ≤ -4.2

Question: Which “polymerase ribozyme fitness (log ratio)” value does the source give for A49C G74C here?
Answer: ≤ -4.2

Question: For A49U C63U C76A A91G U102G U104G C131G, which “polymerase ribozyme fitness (log ratio)” value is on record?
Answer: ≤ -4.2

Question: With A49U G62C A66C G67U C96A C99G U134C U145C A147C U151G as the variant, how does the “polymerase ribozyme fitness (log ratio)” value read?
Answer: ≤ -4.2

Question: With A49G G117A as the variant, how does the “polymerase ribozyme fitness (log ratio)” value read?
Answer: -0.467

Question: For A49C G58A G65A U139A, which “polymerase ribozyme fitness (log ratio)” value is on record?
Answer: ≤ -4.2

Question: Which “polymerase ribozyme fitness (log ratio)” value does the source give for G50A A66G here?
Answer: -3.75

Question: Which “polymerase ribozyme fitness (log ratio)” value does the source give for A49C A60C G65C G88A C131U here?
Answer: ≤ -4.2

Question: Which “polymerase ribozyme fitness (log ratio)” value does the source give for A49G G62U C63U C96A A122U here?
Answer: -3.19

Question: With A49C G59U A73G C96U U104G U135A as the variant, how does the “polymerase ribozyme fitness (log ratio)” value read?
Answer: ≤ -4.2

Question: Which “polymerase ribozyme fitness (log ratio)” value does the source give for A49C G81A A91C A97U A107U G133U here?
Answer: ≤ -4.2

Question: Which “polymerase ribozyme fitness (log ratio)” value does the source give for A49C A107G here?
Answer: ≤ -4.2

Question: With A49C A107U as the variant, how does the “polymerase ribozyme fitness (log ratio)” value read?
Answer: ≤ -4.2

Question: With A49G U56A A60G C76A A89G G92U as the variant, how does the “polymerase ribozyme fitness (log ratio)” value read?
Answer: ≤ -4.2

Question: Which “polymerase ribozyme fitness (log ratio)” value does the source give for G48U G50C U56A C85G here?
Answer: ≤ -4.2

Question: With A49U A52C A89G C95U A115U as the variant, how does the “polymerase ribozyme fitness (log ratio)” value read?
Answer: ≤ -4.2

Question: For A49G A52C, which “polymerase ribozyme fitness (log ratio)” value is on record?
Answer: -1.27

Question: With A49G C87A C93U U146C U151G as the variant, how does the “polymerase ribozyme fitness (log ratio)” value read?
Answer: ≤ -4.2

Question: Which “polymerase ribozyme fitness (log ratio)” value does the source give for A49G A52C G86C here?
Answer: -3.61

Question: For A49C C95U C96G, which “polymerase ribozyme fitness (log ratio)” value is on record?
Answer: -3.85

Question: Which “polymerase ribozyme fitness (log ratio)” value does the source give for A49C C99G A119U U151C here?
Answer: ≤ -4.2

Question: Which “polymerase ribozyme fitness (log ratio)” value does the source give for A49C C57U U102A here?
Answer: ≤ -4.2

Question: With A49C U53A A106G as the variant, how does the “polymerase ribozyme fitness (log ratio)” value read?
Answer: ≤ -4.2

Question: For A49C U55G C76U C87A C99U C105U A120U, which “polymerase ribozyme fitness (log ratio)” value is on record?
Answer: ≤ -4.2

Question: With A49C U56A A64G C87U as the variant, how does the “polymerase ribozyme fitness (log ratio)” value read?
Answer: ≤ -4.2

Question: For A49G C57A A64C G83U G117C A122C, which “polymerase ribozyme fitness (log ratio)” value is on record?
Answer: ≤ -4.2

Question: Which “polymerase ribozyme fitness (log ratio)” value does the source give for A49C A64G G70C G88C G94A C114A here?
Answer: ≤ -4.2

Question: With A49C C75U G88U C118U as the variant, how does the “polymerase ribozyme fitness (log ratio)” value read?
Answer: ≤ -4.2

Question: With A49G G67U U145G as the variant, how does the “polymerase ribozyme fitness (log ratio)” value read?
Answer: ≤ -4.2

Question: Which “polymerase ribozyme fitness (log ratio)” value does the source give for A49C G94C U104G here?
Answer: ≤ -4.2

Question: Which “polymerase ribozyme fitness (log ratio)” value does the source give for A49C A89U A138U here?
Answer: ≤ -4.2

Question: For A49U, which “polymerase ribozyme fitness (log ratio)” value is on record?
Answer: -0.673

Question: Which “polymerase ribozyme fitness (log ratio)” value does the source give for A49C here?
Answer: -4.19

Question: Which “polymerase ribozyme fitness (log ratio)” value does the source give for A49C G80A G86U U102A A115U here?
Answer: ≤ -4.2

Question: Which “polymerase ribozyme fitness (log ratio)” value does the source give for A49U C85A A97G A107G A121G here?
Answer: ≤ -4.2
